# Results: PubChem BioAssay AID602332 (National Center for Advancing Translational Sciences (NCATS), 2012)
# Several values for one entry are separate records, joined by “and”; a condition that tells them apart may be missing. Equal entries are not always repeated. About 75 (0.02%) of roughly 420,000 compounds were called active. The inconclusive results got no clear call from the source; some entries with a clear call stand among them for comparison. Calls follow the shape of the dose curve; as a rule, active = well fitted activation curve with a large enough effect; inconclusive = small, poorly fitted or top-dose-only effect; inactive = no such curve, though single readings can be large or run the other way. Potencies of inconclusive entries are doubtful fits and often do not repeat.
# Assay: qHTS for Inducers of the Endoplasmic Reticulum Stress Response (ERSR) in Human Glioma: qHTS; also: nearly all actives have a fitted effect of over 35% in size; as to activation: % of control where 0% means no effect
# Settings: U87-MG GRP78 promoter luciferase reporter, 16 h; activation: stronger effect = higher value
# Outline: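 Stably transfected U87-MG human glioma cells carrying a GRP78-based luminescent sensor were seeded at 1000 cells/well, pin-dosed with compounds and incubated 16 h. Luciferase reagent was then added, and end-point luminescence was read after 10 min at room temperature.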
# Potency is read from the fitted curve at half-maximal effect; tags tell the direction and shape of the fitted curve.
SMILES,Potency,activation
Cc1ccc(NC(=O)c2ccc(CSc3ncnc4nc[nH]c34)cc2)c(C)c1,"inconclusive: 10 µM [activator, full curve, poor fit]",–
Cc1nc2ccccn2c(=O)c1CCN1CCC(C(=O)c2ccc(F)cc2)CC1,–,inactive: -5.38% and inactive: -4.07% and inactive: -0.322%
Cn1cnc2cc(NCc3ccccc3Cl)ccc21,–,inactive: 2.19%
COc1ccc(C(=O)/C(C#N)=N/Nc2cccc([N+](=O)[O-])c2)cc1,"inconclusive: 50.1 µM [activator, single point]",–
Cc1cc(C)c(S(=O)(=O)Nc2ccc3oc4c(c3c2)CCCC4)cc1C,"inconclusive: 50.1 µM [activator, single point]",–
CC1(C)C(C#N)=C(N)Oc2c1c(=O)oc1ccccc21,"inconclusive: 50.1 µM [activator, single point]",–
COc1ccc(OC)c2nc3c(C(=O)NCCN(C)C)cccc3nc12,"inconclusive: 44.7 µM [activator, partial curve, poor fit]",–
Cc1ccc(-c2nn(-c3ccccc3)cc2CN(Cc2ccccc2)C(=O)CCC(=O)O)o1,"inconclusive: 3.98 µM [activator, single point]",–
NC1(C(=O)O)CSSC1,"inconclusive: 14.1 µM [activator, full curve, poor fit]",–
CCCc1cc(=O)oc2cc(OC(=O)CN3C(=O)NC4(CCCC4)C3=O)ccc12,–,inactive: 0.834%
COc1ccc2oc(=O)c(-c3nnc(N)s3)cc2c1,"inconclusive: 11.2 µM [activator, single point]",–
CC1(C)CC(=O)C(C(=O)/C=C/c2ccco2)C(=O)C1,"inconclusive: 12.6 µM [activator, single point]",–
CCOC(=O)C1CCN(C(=O)c2cnn3c(C)cc(C)nc23)CC1,–,inactive: -2.42%
COC(=O)c1cc(=O)n(CCc2ccccc2F)c(=Nc2ccc(F)c(Cl)c2)s1,"inconclusive: 25.1 µM [activator, full curve, poor fit]",–
COc1ccc(/C=C/C(=O)OCC(=O)NC2CCS(=O)(=O)C2)cc1 (stereo not drawn),"inconclusive: 15.8 µM [activator, single point]",–
CCN(CC)S(=O)(=O)c1ccc(C(=O)OCCNC(=O)c2cccnc2)cc1,–,inactive: -8.18%
CCNC(=S)NNC(=O)c1cc(-c2ccc(OC)cc2)nc2ccccc12,–,inactive: -8.79%
CCOC(=O)c1ccc(N=c2sc(C(=O)OC)cc(=O)n2-c2ccc(C(=O)OCC)cc2)cc1,"inconclusive: 44.7 µM [activator, partial curve, poor fit]",–
CCOc1ccccc1C1N=C(c2ccc(OC)cc2)CC(c2ccccc2O)N1 (stereo not drawn),"inconclusive: 44.7 µM [activator, partial curve, poor fit]",–
Oc1ccc(NCc2ccc(OCc3ccccc3)cc2)cc1,"inconclusive: 44.7 µM [activator, partial curve, poor fit] and inconclusive: 10 µM [activator, partial curve, poor fit]",–
CC(=O)c1ccc(Nc2c3c(nc4ccccc24)CCCC3)cc1,–,inactive: -0.14%

SMILES,Potency,activation
O=C(O)COc1ccccc1/C=C1\SC(=Nc2ccc(F)cc2)N(c2ccc(F)cc2)C1=O,"inconclusive: 50.1 µM [activator, single point]",–
COCCN(Cc1ccccc1)C(=S)Nc1ccc(Cl)cc1,–,inactive: -3.91%
CN(C)CCCN1C(=O)C(=O)/C(=C(/O)c2ccncc2)C1c1cccnc1 (stereo not drawn),–,inactive: -4.84%
CNCCNS(=O)(=O)c1cccc2cnccc12,–,inactive: -4.66% and inactive: -9.23%
CC(C)OCCCNC(=O)Cc1ccc(NC(=O)N2CCCCc3ccccc32)cc1,–,inactive: -1.83%
Cc1cc(NC(C)c2ccccc2)n2ncc(-c3ccccc3)c2n1 (stereo not drawn),"inconclusive: 50.1 µM [activator, partial curve, poor fit]",–
CCOC(=O)c1ccc(N2C(=O)CC(SCC(N)C(=O)OCC)C2=O)cc1 (stereo not drawn),"inconclusive: 44.7 µM [activator, partial curve, poor fit]",–
CC1(C)CC(=O)c2sc(NC(=O)C(C)(C)C)nc2C1,"inconclusive: 28.2 µM [activator, single point]",–
CC(=O)Nc1ccc2c3c(cccc13)C(=O)N(c1ccccc1)C2=O,–,inactive: -1.45%
Cc1nc(-c2ccccc2)sc1-c1ccn[nH]1,–,inactive: -2.7%
O=S(=O)(c1cccs1)N1CCCc2cccc(O)c21,"inconclusive: 28.2 µM [activator, single point]",–
C=C(CC)C(=O)c1ccc(OCC(=O)O)c(Cl)c1Cl,"inconclusive: 28.2 µM [activator, single point] and inconclusive: 50.1 µM [activator, single point]",–
CC(C)(C)c1nnc2sc(SCC(=O)c3ccccc3)nn2c1=O,"inconclusive: 10 µM [activator, single point]",–
Cc1cccc(Oc2nc3ccccn3c(=O)c2/C=C(\C#N)C(=O)NC2CCS(=O)(=O)C2)c1C (stereo not drawn),"inconclusive: 63.1 µM [activator, single point]",–
CC(=O)N1CCN(c2ccccc2NC(=O)COc2ccccc2C)CC1,"inconclusive: 50.1 µM [activator, single point]",–
N/C(=N\OC(=O)CCc1ccccc1)c1ccccc1Cl,"inconclusive: 11.2 µM [activator, partial curve, poor fit]",–
O=C(/C=C/c1cccc([N+](=O)[O-])c1)c1ccc2c(c1)OCCO2,"inconclusive: 44.7 µM [activator, single point]",–
Cc1cccc(-c2noc(CNS(=O)(=O)c3ccccc3)n2)c1,"inconclusive: 2 µM [activator, full curve, poor fit]",–
OC(COCC1COc2ccccc2O1)CN1CCc2ccccc2C1 (stereo not drawn),"inconclusive: 50.1 µM [activator, single point]",–
CCc1cc(-c2cnnn2Cc2ccccc2)ccc1-c1cn(CC(C)C)nn1,"inconclusive: 12.6 µM [activator, single point]",–
C/C(=N\NC(=S)NC(C)C)c1ccc(C(C)(C)C)cc1,"inconclusive: 50.1 µM [activator, single point]",–

SMILES,Potency,activation
N#C/C(=C\c1ccc(O)c(O)c1)C(=O)Nc1ccccc1,"inconclusive: 22.4 µM [activator, full curve] and inconclusive: 35.5 µM [activator, partial curve, poor fit] and inconclusive: 9.27 µM [activator, partial curve, poor fit]",–
CC1=[N+](C)N(c2ccccc2)C(=O)C1N=Cc1ccc(Cl)cc1 (stereo not drawn),"inconclusive: 12.6 µM [activator, single point]",–
O=C(CCNS(=O)(=O)c1ccccc1F)NC1CCCCCC1,"inconclusive: 14.1 µM [activator, single point]",–
Oc1ccc(-c2csc(-c3ccccc3)n2)cc1O,"inconclusive: 2 µM [activator, partial curve, poor fit]",–
COc1ccc2nc(Nc3nc(C)c(C(C)=O)s3)sc2c1,"inconclusive: 56.2 µM [activator, partial curve, poor fit]",–
COc1ccc2c(c1)CCc1c(C(=O)N3CCCCCC3)noc1-2,"inconclusive: 5.01 µM [activator, single point]",–
Oc1ccc(C2CNCCc3c2cc(O)c(O)c3Cl)cc1 (stereo not drawn),"inconclusive: 26.1 µM [activator, partial curve, poor fit]",–
CC(C)c1c(C(=O)NC(c2cccnc2)C(F)(F)F)cnn1-c1nccc(-c2cccs2)n1 (stereo not drawn),–,inactive: -5.2%
c1ccc(CSc2nnc(-c3ccco3)n2Cc2ccco2)cc1,–,inactive: 8.62%
Cc1ccc2c(NC(=O)c3ccc(Br)o3)cccc2n1,–,inactive: 3.76%
c1cc(Nc2ncnc3sccc23)cc(-c2nnc3n2CCCCC3)c1,"inconclusive: 14.1 µM [activator, partial curve, poor fit]",–
CCn1c(SCC(=O)Nc2ccc(C)cc2)nc(O)cc1=O,–,inactive: -3.24%
COc1ccc(NC(=O)/C(C#N)=C/c2c(C)nn(-c3ccc(F)cc3)c2Cl)cc1OC,"inconclusive: 63.1 µM [activator, single point]",–
COc1ccc(-c2cc(C(F)(F)F)nc(S(=O)(=O)CCCC(=O)Nc3ccccc3C(F)(F)F)n2)cc1OC,"inconclusive: 2.24 µM [activator, full curve, poor fit]",–
Cc1nn(-c2nc3ccccc3[nH]2)c(N)c1-c1ccccc1,"inconclusive: 50.1 µM [activator, partial curve, poor fit]",–
CC(C)Sc1nnc(NC(=O)CCc2ccccc2)s1,–,inactive: -0.667%
Cn1ccc2c(N3c4ccccc4CCc4ccccc43)cc3c(c21)C1CCC3C1 (stereo not drawn),"inconclusive: 50.1 µM [activator, single point]",–
Cc1cc(Nc2cccc(Cl)c2)nc(-c2ccccc2O)n1,"inconclusive: 70.8 µM [activator, single point]",–
O=S1(=O)CCOC[C@H](CC2CCCCC2)N1Cc1ccccc1Br,"inconclusive: 50.1 µM [activator, single point]",–
Cn1nccc1C(=O)NC1CCCc2c1cnn2-c1cc(F)cc(F)c1 (stereo not drawn),"inconclusive: 17.8 µM [activator, single point]",–
Cc1ccc(S(=O)(=O)N/N=C/c2ccc(OCC(=O)N3CCOCC3)cc2)cc1,–,inactive: 2.8%
